# Data published in PubChem BioAssay AID504706 (National Center for Advancing Translational Sciences (NCATS), 2011).
# Hit rate of the full screen: of about 320,000 compounds, about 200 (0.062%) were called active. This list was built around the results that the source calls inconclusive (neither active nor inactive); the mix of calls is not that of the screen. The call rests on the fitted dose curve; in most records, active means well fitted activation curve with a large enough effect; inconclusive means small, poorly fitted or top-dose-only effect; inactive means no such curve, though single readings can be large or run the other way. Potencies of inconclusive entries are left out as doubtful fits.
# Assay: qHTS assay for re-activators of p53 using a Luc reporter; further: nearly all actives have a fitted effect of over 45% in size; on activity change, positive = activation: % of control where 0% means no effect
# Details: H1299 p53-A138V BP100-luciferase reporter, luminescence, 24 h; series mostly up to 92.2 µM; activity change, positive = activation: at the top concentration
# Summary of the method: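 p53-null H1299 cells stably carrying temperature-sensitive p53-A138V and a BP100-luciferase reporter were pinned with compounds (4-point, 1:5 series) and held 24 hrs at 37 deg C. Luminescence was read 10 min after detection reagent.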
# Potency means the concentration at half of the fitted maximal effect; tags describe the fitted curve by direction and shape.
Compound,"activity change, positive = activation",Potency
CC(C)NC(=S)NN=C1CCC(c2ccccc2)CC1 (centres undefined),inactive: 1.34%,–
O=C(CSc1ncnc2nc[nH]c12)c1ccccc1,–,"inconclusive [activator, full curve, poor fit]"
CCC(=O)Nc1cccc(-c2nc3ncccc3o2)c1C,–,"inconclusive [activator, single point]"
O=C(Nc1ccc2c(c1)nc1n2CCOC1)c1ccccc1,inactive: 9.3%,–
COc1ccc(CN2CNc3nc4ccccc4n3C2)cc1,inactive: 0.472%,–
O=C(CNC(=O)c1cccs1)c1ccc(Cl)cc1,–,"inconclusive [activator, full curve, poor fit]"
COc1ccccc1C(=O)NCc1ccccn1,inactive: -0.59%,–
CCCc1nn(C)c(C(=O)Nc2ccccc2)c1Cl,–,"inconclusive [activator, partial curve, poor fit]"
O=C(Nc1ccc2c(c1)CCC2)Nc1ccccc1F,–,"inconclusive [activator, full curve, poor fit]"
O=C1CNC(=S)N1CCOc1ccccc1,–,"inconclusive [activator, single point]"
COc1ccccc1NC(=O)c1nnn(Cc2ccccc2)c1NC(=O)C(F)(F)F,–,"inconclusive [activator, single point]"
N#Cc1c(NC(=O)C2CC(c3c(F)cccc3Cl)=NO2)sc2c1CCC2 (centres undefined),–,"inconclusive [activator, partial curve, poor fit]"
COc1ccc(N/C=C/C(=O)c2ccc3c(c2)OCO3)cc1OC,–,"inconclusive [activator, partial curve, poor fit]"
Cc1nc(SCC(=O)NCC2CCCO2)c2cc(-c3ccccc3)sc2n1 (centres undefined),–,"inconclusive [activator, partial curve, poor fit]"
Cc1onc(C(=O)Nc2ccccc2C(F)(F)F)c1[N+](=O)[O-],–,"inconclusive [activator, partial curve, poor fit]"
CCN(CC)c1ccc2cc(-c3nc4ccccc4n3C)c(=O)oc2c1,–,"inconclusive [activator, partial curve, poor fit]"
Cc1c(C(=O)N2CCc3ccccc32)oc2ccccc12,–,"inconclusive [activator, full curve, poor fit]"
CS(=O)(=O)N1N=C(c2ccccc2)CC1c1ccc2c(c1)OCO2 (centres undefined),–,"inconclusive [activator, full curve]"
COc1cc([N+](=O)[O-])cc(/C=C2/SC(=S)N(Cc3ccccc3)C2=O)c1O,inactive: -2.29%,–
